Several values for one entry are separate records, joined by “and”; a condition that tells them apart may be missing. Identical values can stand only once. Counter-ions that a name gives are not always drawn. The whole screen tested about 5,800 compounds, of which about 620 (11%) showed activity.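 Rule for the calls: active = score above a cut-off or among the top three wells of a plate; in these data no inactive exceeds 0.85.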 This is a selection; strong and weak results do not stand in their true shares.
Test system: primary human hepatic stellate cells (donor 1)
Assay: scaled lipid accumulation score (0 = DMSO-like, 1 = nortriptyline-like); higher = stronger HSC inactivation (lipid re-accumulation), active = hit call of the paper
Conditions: 48 h
[1] = library stock concentration: 80 uM
[2] = library stock concentration: 400 uM
[3] = library stock concentration: 2 mM
[4] = library stock concentration: 3.33 mM
[5] = library stock concentration: 10 mM
[6] = library stock concentration: 1 mM
[7] = library stock concentration: 9.2 mM

## CC(C)n1nc(-c2ccc3oc(N)nc3c2)c2c(N)ncnc21
[1]
  scaled lipid accumulation score: inactive: ≤ -0.016
[2]
  scaled lipid accumulation score: inactive: ≤ -0.015
[3]
  scaled lipid accumulation score: inactive: ≤ -0.016
[4]
  scaled lipid accumulation score: inactive: 0.032
[5]
  scaled lipid accumulation score: inactive: ≤ 0 and inactive: ≤ -0.016

## N=C(N)Nc1ccc(C(=O)Oc2ccc3cc(C(=N)N)ccc3c2)cc1 [Nafamostat Mesylate]
[4]
  scaled lipid accumulation score: inactive: 0.014
[5]
  scaled lipid accumulation score: inactive: ≤ 0

## N=C(N)Nc1ccc(C(=O)Oc2ccc3cc(C(=N)N)ccc3c2)cc1 [Nafamostat mesylate]
Library stock concentration: 11.3 mM
  scaled lipid accumulation score: inactive: 0.081

## Cc1[nH]c2ccccc2c1C1=C(NCCc2ccc(F)cc2)C(=O)N(C)C1=O
[4]
  scaled lipid accumulation score: inactive: ≤ -0.009
[5]
  scaled lipid accumulation score: inactive: 0.098

## O=C1C(SCCO)=C(SCCO)C(=O)c2ccccc21
[5]
  scaled lipid accumulation score: active: 1.2

## CC(Cc1ccccc1)(NC(=O)CN)c1ccccc1 (racemic)
[5]
  scaled lipid accumulation score: active: 0.922

## NC(N)=Nc1ccc(Cl)cc1 [4-Chlorophenylguanidine hydrochloride]
[5]
  scaled lipid accumulation score: inactive: 0.022

## CCCCCCCCCCCCCCCC(=O)OC[C@@H](NC(=O)C(Cl)Cl)[C@H](O)c1ccc([N+](=O)[O-])cc1 [Chloramphenicol palmitate]
Library stock concentration: 3.6 mM
  scaled lipid accumulation score: inactive: 0.026

## [O-]/[N+](=N\O[C@@H]1O[C@H](CO)[C@H](O)[C@H](O)[C@H]1O)N1CCCC1 [.beta.-Gal-NONOate]
[6]
  scaled lipid accumulation score: inactive: ≤ 0

## Oc1ccc2ccccc2c1SSc1c(O)ccc2ccccc12
[4]
  scaled lipid accumulation score: inactive: ≤ -0.009
[5]
  scaled lipid accumulation score: inactive: 0.665

## COc1cc2nc(N(C)CCCNC(=O)C3CCCO3)nc(N)c2cc1OC (centres undefined) [Alfluzocin]
[5]
  scaled lipid accumulation score: inactive: 0.025

## COc1cc2nc(N(C)CCCNC(=O)C3CCCO3)nc(N)c2cc1OC (centres undefined) [Alfuzosin HCl]
[4]
  scaled lipid accumulation score: inactive: ≤ 0
[5]
  scaled lipid accumulation score: inactive: ≤ 0

## COc1cc2nc(N(C)CCCNC(=O)C3CCCO3)nc(N)c2cc1OC (centres undefined) [Alfluzosin]
Library stock concentration: 5.1 mM
  scaled lipid accumulation score: inactive: ≤ 0

## COc1cc2nc(N(C)CCCNC(=O)C3CCCO3)nc(N)c2cc1OC (centres undefined)
[5]
  scaled lipid accumulation score: inactive: ≤ 0

## COc1cc2nc(N(C)CCCNC(=O)C3CCCO3)nc(N)c2cc1OC (centres undefined) [Alfuzosin hydrochloride]
  scaled lipid accumulation score: inactive: ≤ 0
[5]
  scaled lipid accumulation score: inactive: 0.274

## O=C(Nc1cccc2cccnc12)c1ccc(N2C(=O)C3C4C=CC(C4)C3C2=O)cc1 (stereo not drawn) [IWR-1-endo]
[4]
  scaled lipid accumulation score: inactive: ≤ 0
[5]
  scaled lipid accumulation score: inactive: ≤ -0.001

## O=C(O)/C=C/c1ccc(O)c(O)c1 [Caffeic Acid]
[6]
  scaled lipid accumulation score: inactive: ≤ 0
[4]
  scaled lipid accumulation score: inactive: 0.002
[5]
  scaled lipid accumulation score: inactive: ≤ 0 and inactive: 0.016

## O=C(O)/C=C/c1ccc(O)c(O)c1 [Caffeic acid]
  scaled lipid accumulation score: inactive: ≤ 0

## CCCCc1nc2cc(/C=C/C(=O)NO)ccc2n1CCN(CC)CC [Pracinostat (SB939)]
[4]
  scaled lipid accumulation score: inactive: 0.45
[5]
  scaled lipid accumulation score: inactive: 0.23

## CCCCc1nc2cc(/C=C/C(=O)NO)ccc2n1CCN(CC)CC
[1]
  scaled lipid accumulation score: inactive: ≤ 0
[2]
  scaled lipid accumulation score: inactive: ≤ 0
[3]
  scaled lipid accumulation score: inactive: 0.416
[5]
  scaled lipid accumulation score: inactive: 0.388

## CCCCCC1OC(O)CC1SC[C@H](NC(C)=O)C(=O)O (some centres undefined) [4-hydroxy Nonenal Mercapturic Acid]
[6]
  scaled lipid accumulation score: inactive: ≤ 0

## O=C(CCc1ccc(O)c(O)c1)N[C@@H](CC(=O)OCc1ccccc1)C(=O)OCc1ccccc1
[6]
  scaled lipid accumulation score: inactive: ≤ 0

## C#C[C@]1(OC(C)=O)CC[C@H]2[C@@H]3CCC4=CC(=NO)CC[C@@H]4[C@H]3CC[C@@]21CC (mixture of isomers) [Norgestimate]
Library stock concentration: 5.4 mM
  scaled lipid accumulation score: inactive: ≤ 0

## COc1ccc2cc([C@H](C)CO)ccc2c1 [Naproxol]
[7]
  scaled lipid accumulation score: inactive: ≤ 0
[5]
  scaled lipid accumulation score: inactive: 0.031

## Cl.O[Si](CCCN1CCCCC1)(c1ccc(F)cc1)C1CCCCC1 (centres undefined) [Hexahydro-sila-difenidol hydrochloride, p-fluoro analog]
[5]
  scaled lipid accumulation score: active: 0.956

## O=C1c2ccccc2C(=O)C1c1ccc(Cl)cc1
[5]
  scaled lipid accumulation score: inactive: 0.203

## Clc1ccc(C2(c3ccc(-c4cn[nH]c4)cc3)CCNCC2)cc1
[4]
  scaled lipid accumulation score: active: 1.22

## CC(C)n1cnc2c(NCc3ccccc3O)nc(NCCCO)nc21 [Cdk Inhibitor, p35]
[4]
  scaled lipid accumulation score: inactive: ≤ 0

## CCCCC[C@H](O)/C=C/[C@@H]1[C@@H](C/C=C\CCCC(=O)NCC)[C@@H](O)C[C@H]1O [Prostaglandin F2.alpha. ethyl amide]
[6]
  scaled lipid accumulation score: inactive: ≤ 0

## O=C(O)C1CCCN(CCC=C(c2ccccc2)c2ccccc2)C1 (centres undefined)
[5]
  scaled lipid accumulation score: inactive: ≤ 0 and inactive: ≤ -0.006

## CC(C)c1cc(-c2n[nH]c(=O)n2-c2ccc3c(ccn3C)c2)c(O)cc1O [Ganetespib (STA-9090)]
[4]
  scaled lipid accumulation score: inactive: 0.691
[5]
  scaled lipid accumulation score: inactive: 0.649

## CC(C)c1cc(-c2n[nH]c(=O)n2-c2ccc3c(ccn3C)c2)c(O)cc1O [Ganetespib]
[1]
  scaled lipid accumulation score: inactive: 0.602
[2]
  scaled lipid accumulation score: inactive: 0.802

## CC(=O)O[C@]1(C(C)=O)CC[C@H]2[C@@H]3C=C(Cl)C4=CC(=O)[C@@H]5C[C@@H]5[C@]4(C)[C@H]3CC[C@@]21C [Cyproterone Acetate]
[4]
  scaled lipid accumulation score: inactive: 0.03
[5]
  scaled lipid accumulation score: inactive: ≤ 0

## CC(=O)O[C@]1(C(C)=O)CC[C@H]2[C@@H]3C=C(Cl)C4=CC(=O)[C@@H]5C[C@@H]5[C@]4(C)[C@H]3CC[C@@]21C [Cyproterone acetate]
  scaled lipid accumulation score: inactive: ≤ 0
Library stock concentration: 4.8 mM
  scaled lipid accumulation score: inactive: 0.037 and inactive: ≤ -0.001
[5]
  scaled lipid accumulation score: inactive: 0.449 and inactive: ≤ 0

## COc1ccc(-c2ccc3ncc4c(c3c2)n(-c2ccc(N3CCNCC3)c(C(F)(F)F)c2)c(=O)n4C)cn1
[1]
  scaled lipid accumulation score: inactive: 0.133
[3]
  scaled lipid accumulation score: inactive: 0.546
[4]
  scaled lipid accumulation score: inactive: 0.237
[5]
  scaled lipid accumulation score: inactive: ≤ 0 and inactive: 0.223

## Clc1ccc(CO/N=C(\Cn2ccnc2)c2ccc(Cl)cc2Cl)c(Cl)c1
[5]
  scaled lipid accumulation score: inactive: 0.512

## Clc1ccc(CO/N=C(\Cn2ccnc2)c2ccc(Cl)cc2Cl)c(Cl)c1 [Oxiconazole nitrate]
Library stock concentration: 4.7 mM
  scaled lipid accumulation score: inactive: 0.077
[5]
  scaled lipid accumulation score: inactive: 0.068

## Cc1nnsc1C(=O)Nc1ccc(-n2nc(C(F)(F)F)cc2C(F)(F)F)cc1
[6]
  scaled lipid accumulation score: inactive: ≤ 0

## CCCSc1nc(N[C@@H]2C[C@H]2c2ccc(F)c(F)c2)c2nnn([C@@H]3C[C@H](OCCO)[C@@H](O)[C@H]3O)c2n1 [Ticagrelor]
[4]
  scaled lipid accumulation score: inactive: ≤ 0
[5]
  scaled lipid accumulation score: inactive: 0.193

## CN1CCN(C2=Cc3ccccc3Oc3ccc(Cl)cc32)CC1.O=C(O)/C=C/C(=O)O
[5]
  scaled lipid accumulation score: active: 1.01

## C=CC(=O)Nc1cccc(Nc2nc(Nc3ccc(Oc4ccnc(C(=O)NC)c4)cc3)ncc2F)c1
[4]
  scaled lipid accumulation score: inactive: ≤ -0.009
[5]
  scaled lipid accumulation score: inactive: 0.491

## CCCCC(C)(C)[C@H](O)/C=C/[C@H]1C=CC(=O)[C@@H]1C/C=C\CCCC(=O)O [16,16-dimethyl Prostaglandin A2]
[6]
  scaled lipid accumulation score: inactive: ≤ 0

## CCCCC(CC)CCC(CC(C)C)OS(=O)(=O)O (centres undefined)
[5]
  scaled lipid accumulation score: inactive: ≤ 0

## Cn1cc(-c2cnn3c(N)c(Br)c([C@@H]4CCCNC4)nc23)cn1
[4]
  scaled lipid accumulation score: inactive: ≤ 0
[5]
  scaled lipid accumulation score: inactive: 0.521

## N[C@@H]1CONC1=O [Cycloserine]
[5]
  scaled lipid accumulation score: inactive: 0.019

## N[C@@H]1CONC1=O
[5]
  scaled lipid accumulation score: inactive: ≤ 0

## N[C@@H]1CONC1=O [D-Cycloserine]
[5]
  scaled lipid accumulation score: inactive: 0.141

## N[C@@H]1CONC1=O [D-cycloserine]
  scaled lipid accumulation score: inactive: ≤ 0

## CCc1c(C)[nH]c2c1C(=O)C(CN1CCOCC1)CC2 (centres undefined) [Moban]
[5]
  scaled lipid accumulation score: inactive: ≤ 0

## CCc1c(C)[nH]c2c1C(=O)C(CN1CCOCC1)CC2 (centres undefined) [Molindone hydrochloride]
  scaled lipid accumulation score: inactive: ≤ 0
[5]
  scaled lipid accumulation score: inactive: ≤ -0.01

## Cc1ccc(NCCCc2ccccc2)c(N)c1
[4]
  scaled lipid accumulation score: inactive: ≤ -0.009
[5]
  scaled lipid accumulation score: inactive: ≤ 0

## NC(=O)CNCCC(c1ccccc1)c1ccccc1 [N-(3,3-Diphenylpropyl)glycinamide]
[5]
  scaled lipid accumulation score: inactive: 0.155

## NC(=O)CNCCC(c1ccccc1)c1ccccc1 [N20C hydrochloride]
[5]
  scaled lipid accumulation score: inactive: 0.398

## C=CC(=O)Nc1cc(Nc2nccc(-c3cn(C)c4ccccc34)n2)c(OC)cc1N(C)CCN(C)C
[5]
  scaled lipid accumulation score: inactive: ≤ 0

## C#Cc1cccc(Nc2ncnc3cc4c(cc23)OCCOCCOCCO4)c1 [Icotinib]
[4]
  scaled lipid accumulation score: inactive: ≤ 0
[5]
  scaled lipid accumulation score: inactive: ≤ 0

## CC1=C(C(=O)O)N2C(=O)[C@@H](NC(=O)[C@H](N)C3=CCC=CC3)[C@H]2SC1 [Cephradine]
Library stock concentration: 5.7 mM
  scaled lipid accumulation score: inactive: ≤ -0.001
[5]
  scaled lipid accumulation score: inactive: ≤ 0

## N[C@@H](CCC(=O)N[C@@H](CS)C(=O)NCC(=O)O)C(=O)O [Glutathione]
[5]
  scaled lipid accumulation score: inactive: ≤ 0

## c1ccc(-c2[nH]ncc2-c2ccnc3ccccc23)nc1
[6]
  scaled lipid accumulation score: inactive: ≤ 0
[5]
  scaled lipid accumulation score: inactive: ≤ -0.001

## CCC1(c2ccccc2)NC(=O)N(C)C1=O (centres undefined) [Mephenytoin]
  scaled lipid accumulation score: inactive: 0.001
[7]
  scaled lipid accumulation score: inactive: ≤ -0.006

## COc1cc2c3cc1Oc1cc(ccc1O)C[C@@H]1c4c(cc(OC)c(O)c4Oc4ccc(cc4)C[C@@H]3N(C)CC2)CC[N+]1(C)C [Tubocurarine chloride]
Library stock concentration: 3.1 mM
  scaled lipid accumulation score: inactive: ≤ 0

## CC1(C)[C@H](C(=O)O)N2C(=O)C[C@H]2S1(=O)=O [Sulbactam]
[4]
  scaled lipid accumulation score: inactive: ≤ 0
Library stock concentration: 8.6 mM
  scaled lipid accumulation score: inactive: 0.002
[5]
  scaled lipid accumulation score: inactive: ≤ 0

## CC1(C)[C@H](C(=O)O)N2C(=O)C[C@H]2S1(=O)=O [Sulbactam sodium]
[4]
  scaled lipid accumulation score: inactive: ≤ 0
[5]
  scaled lipid accumulation score: inactive: ≤ 0

## Cc1ncc(CO)c(CO)c1O [Pyridoxine hydrochloride]
  scaled lipid accumulation score: inactive: ≤ 0

## Cc1ncc(CO)c(CO)c1O [Pyridoxine]
Library stock concentration: 11.8 mM
  scaled lipid accumulation score: inactive: ≤ 0

## Cc1ncc(CO)c(CO)c1O [Pyridoxine HCl]
[4]
  scaled lipid accumulation score: inactive: ≤ 0
[5]
  scaled lipid accumulation score: inactive: 0.02

From the supplement of paper PMC9135407
